The campaign covered roughly 310,000 compounds. About 14,000 (4.5%) showed an effect of 50% or more. The effect is printed as a negative number. The list shows a part of the results.
Target: human ether-à-go-go-related gene (hERG) potassium channel (human, UniProt Q12809)
Assay: primary screen, population patch clamp on CHO cells stably expressing hERG
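Also: peak tail current of the secondary pulse compared with the same well before compound.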

Chain of human ether-à-go-go-related gene (hERG) potassium channel (Q12809 whole entry, looked up): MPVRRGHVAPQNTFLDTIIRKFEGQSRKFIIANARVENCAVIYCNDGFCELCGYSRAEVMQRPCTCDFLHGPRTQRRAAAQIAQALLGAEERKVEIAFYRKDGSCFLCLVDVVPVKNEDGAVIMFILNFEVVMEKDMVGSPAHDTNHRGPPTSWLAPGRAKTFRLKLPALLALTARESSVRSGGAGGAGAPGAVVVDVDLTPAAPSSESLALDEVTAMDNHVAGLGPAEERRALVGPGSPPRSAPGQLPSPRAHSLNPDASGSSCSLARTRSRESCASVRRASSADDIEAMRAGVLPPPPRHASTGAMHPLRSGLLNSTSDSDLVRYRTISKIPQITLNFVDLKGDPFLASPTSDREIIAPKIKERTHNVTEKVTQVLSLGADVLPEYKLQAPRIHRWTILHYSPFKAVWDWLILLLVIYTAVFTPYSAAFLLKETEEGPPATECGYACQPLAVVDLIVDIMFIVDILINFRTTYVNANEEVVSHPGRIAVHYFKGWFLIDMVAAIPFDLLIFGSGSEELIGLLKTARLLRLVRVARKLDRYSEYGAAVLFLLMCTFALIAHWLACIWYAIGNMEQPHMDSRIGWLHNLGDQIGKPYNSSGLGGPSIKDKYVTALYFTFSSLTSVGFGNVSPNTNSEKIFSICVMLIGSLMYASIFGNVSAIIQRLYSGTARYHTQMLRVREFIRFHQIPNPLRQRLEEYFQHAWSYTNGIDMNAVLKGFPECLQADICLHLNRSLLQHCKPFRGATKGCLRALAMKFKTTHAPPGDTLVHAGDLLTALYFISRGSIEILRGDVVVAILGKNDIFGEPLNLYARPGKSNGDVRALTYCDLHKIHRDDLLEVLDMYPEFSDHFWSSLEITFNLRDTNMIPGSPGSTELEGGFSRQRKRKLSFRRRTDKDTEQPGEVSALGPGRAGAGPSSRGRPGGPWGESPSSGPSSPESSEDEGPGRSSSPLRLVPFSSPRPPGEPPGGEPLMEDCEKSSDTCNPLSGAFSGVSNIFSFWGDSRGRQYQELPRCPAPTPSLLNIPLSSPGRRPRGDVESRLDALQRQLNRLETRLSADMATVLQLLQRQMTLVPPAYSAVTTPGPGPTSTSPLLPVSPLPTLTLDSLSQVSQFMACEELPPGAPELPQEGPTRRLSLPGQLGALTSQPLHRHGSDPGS

SMILES	hERG current change (%, negative = inhibition) at 10uM [%]
CSCCC(N=C1NS(=O)(=O)c2ccccc21)C(=O)NCc1ccccc1F (stereo not shown)	5.73
Cc1ccc(NC(=O)COC(=O)c2ccc([N+](=O)[O-])s2)c(C)c1	20.5
O=c1[nH]c(CSc2nnc3ccccn23)nc2ccccc12	-9.13
Cc1cccc(C)c1NC(=S)N=Nc1c(O)n(C)c2ccc(S(=O)(=O)N3CCOCC3)cc12	18.8
Cc1cccc(/C=C/C(=O)c2cc(Br)ccc(=O)c2O)c1	16.7
CN1CCN(c2oc(-c3cccs3)nc2S(=O)(=O)c2ccccc2)CC1	-32.2
Cc1ccc(Sc2ccc([N+](=O)[O-])cc2[N+](=O)[O-])nc1	-19.1
CCOC(=O)c1c(S(=O)(=O)NCc2ccco2)c(C)n(C)c1C	-13.8
Cc1ccc(-c2cccc(C3CC=CC4C3C(=O)N(Cc3ccccc3)C4c3ccc(C(F)(F)F)cc3)c2)cc1 (stereo not shown)	25.5
C=CCn1c(SCC(=O)NC)nc2sc3c(c2c1=O)CCC3	-19.4
CCCc1cc(=O)oc2c3c(cc(OCC(=O)NCc4ccccn4)c12)OC(C)(C)CC3	-22.7
CC(C)(C)c1ccc(S(=O)(=O)N2CCC(NC(=O)c3ccco3)CC2)cc1	18.3
CC1(c2ccc([N+](=O)[O-])cc2)NC(=O)N(CC(=O)Nc2ccc(N3CCCCC3)cc2)C1=O (stereo not shown)	9.59
C=CCn1c(C2CCCCC2)n[nH]c1=S	13.1
Cc1ccc(C(=O)Nc2cccc(C(=O)N/N=C/c3ccc(O)cc3)c2)cc1	23.9
O=C(Nc1ccccc1)Nc1cccc(NC(=O)Nc2ccccc2)c1F	19.1
COc1ccc(/C=C/C(=O)NC(=S)Nc2ccccc2C(=O)NC2CCCCC2)cc1	1.07
Cc1nc2cc(-n3ccc(=O)cc3)ccc2n1-c1ccccc1	-13.9
CC(=O)NC1C2CN3CCN(C2)CC1(Cc1ccccc1)C3 (stereo not shown)	9.26
CCN(CC(=O)Nc1ccccc1OC)C(=O)c1ccc(N(C)S(=O)(=O)c2ccc(C)cc2)cc1	-62.2
CN(c1ccccc1)S(=O)(=O)c1cccc(NC(=O)CSc2nnc(N)s2)c1	13.6
O=C(COC(=O)Cn1cnc2ccccc21)Nc1ccc2c(c1)OCCO2	13.4

SMILES	hERG current change (%, negative = inhibition) at 10uM [%]
CN1CCN(c2ccc(S(=O)(=O)N3CCCCC3)cc2N)CC1.Cl	-0.152
Cc1cc(C(=O)COc2cccnc2[N+](=O)[O-])c(C)n1-c1ccccc1F	-2.02
CCOc1ccc(CCNC(=O)COC(=O)c2nn(C)c(=O)c3ccccc23)cc1OCC	-12.3
Br.COc1cc(NS(=O)(=O)c2ccc(Nc3nc(-c4ccccn4)cs3)cc2)nc(OC)n1	-0.484
N/C(CSc1ncccc1C(F)(F)F)=N\O	16.4
CCOc1ccc(N(Cc2ccccc2F)C2=NC3CS(=O)(=O)CC3S2)cc1 (stereo not shown)	-15.3
CCOc1ccc(NC(=O)C(C)Oc2ccc(C#N)cc2)cc1S(=O)(=O)N1CCCC1 (stereo not shown)	-62.1
COc1cccc(C(=O)NCc2ccc3c(c2)cc(C)n3C)c1	17
Cc1ccc(NC2c3ncccc3C(=O)N2c2ccccc2C)cc1C (stereo not shown)	11
COc1ccc(S(=O)(=O)N2CCC(n3cnc4ccccc43)CC2)cc1	-64.9
Cc1ccc(C)c(NC(=S)NCCc2cnc[nH]2)c1	8.43
Cc1nc2c(C(=O)NCc3ccc4c(c3)OCO4)cnn2c(C)c1Cc1ccc(F)cc1Cl	-22.3
NC(=O)C1CCN(C(=O)CCNS(=O)(=O)c2ccccc2F)CC1	9.26
Cc1csc(SCC(=O)NC(=O)NC(C)(C)C)n1	5.75
CC(C)(C)c1ccc(-c2noc(C(=O)NN)n2)cc1	19.1
CC1=NN(C(=O)COc2ccc(C)c(C)c2)C(O)(c2ccc(Cl)cc2)C1 (stereo not shown)	-3.96
C/C(CC(=O)Nc1ccccn1)=N\NC(=O)c1ccc2ccccc2c1	4.85
CCOc1ccc(S(=O)(=O)NCCCl)cc1	9.89
O=C(Nc1ccccn1)c1ccc2ccccc2n1	-4.94
O=C1NC(=O)C(C(CC(=O)c2ccccc2)c2ccccc2)C(=O)N1 (stereo not shown)	30.6
CN(C)C(=O)OCc1n(C)cc[n+]1C.Cc1ccc(S(=O)(=O)[O-])cc1	11.5
CCCSCCCNC(=O)CN1C(=O)COc2ccc(S(=O)(=O)N3CCCC3)cc21	2.87

SMILES	hERG current change (%, negative = inhibition) at 10uM [%]
Cc1cc(NC(=O)CSc2nnc(-c3cccnc3)n2N)no1	-0.572
Cc1ccc(-c2nn(-c3ccccc3)cc2CN(Cc2ccccc2)C(=O)CCC(=O)O)o1	0.911
COc1ccc(CCNc2nc3ccc(C)cc3n3cnnc23)cc1OC	10.6
O=C(Nc1ncc2c(n1)-c1ccccc1CC2)c1cccc(Cl)c1	-7.54
CC(C)(C)NC(=O)CSc1nnc(-c2ccncc2)o1	1.41
NC(=O)CSc1nnc(COc2cccc3ccccc23)o1	-7.72
O=C(CCCc1c[nH]c2ccccc12)N1CCN(S(=O)(=O)c2cccs2)CC1	-13.6
Cc1ccccc1OCC(O)CN(CCO)Cc1ccccc1.Cl (stereo not shown)	-22.5
CC(C)Nc1ncnc2ccc(Br)cc12	4.91
Cc1cc(C(=O)N/N=C/c2cc(Br)ccc2OC(=O)c2ccc(Br)cc2)n[nH]1	-1.42
Cc1[nH]c(=S)n(CC2CCCO2)c1C (stereo not shown)	-8.2
CC(=O)N/C(=C\c1ccccc1)C(=O)OCC(=O)N(CC(C)C)c1c(N)n(Cc2ccccc2)c(=O)[nH]c1=O	6.75
CCc1c(C)c(C#N)c2[nH]c3ccccc3n2c1=S	5.02
COc1ccc(CCNC(=O)c2c(O)c3c([nH]c2=O)CCCC3)cc1OC	2.12
CCNc1oc(-c2ccc(OC)cc2)nc1S(=O)(=O)c1ccc(Br)cc1	-17.3
CCOC(=O)CCn1cc(F)c(=O)n(Cc2ccccc2)c1=O	17
Cc1ccc(NC(=O)N/C=C/c2ccccc2)cc1	0.0712
COc1ccc(NC(=O)Nc2ccc(Br)cn2)cc1	14.8
Cc1c(NC(C)c2ccccc2O)c(=O)n(-c2ccccc2)n1C (stereo not shown)	10.3
COc1ccc(Nc2cc(Nc3ccc(OC)cc3)ncn2)cc1	8.68
Cc1nn(-c2ccccc2)c(C)c1Cc1ccc(O)cc1	8.03
Cn1c(=O)c2c(nc(CN3CCN(C(c4ccccc4)c4ccccc4)CC3)n2CCCO)n(C)c1=O	-30.6

SMILES	hERG current change (%, negative = inhibition) at 10uM [%]
COc1ccc(CCNc2ccc(S(N)(=O)=O)cn2)cc1	16.8
CC1(C)OC(c2ccccc2)=C/C(=C/C=C2C(=O)NC(=S)NC2=O)O1	-19.5
COCCNC(=S)N1CCN(C/C=C/c2ccccc2)CC1	4.83
O=C(CSc1nnc(-c2cccs2)o1)N1CCCCC1	2.99
CCOc1ccc(C2C(C(=O)OC)=CN(CCOC)C=C2C(=O)OC)cc1	-14.6
Cc1cccc(C)c1OCc1cc(C(=O)NCC2CC2)no1	7.3
COc1ccc(NC(=O)CCCN2C(=O)C3C4C=CC(C4)C3C2=O)c(OC)c1 (stereo not shown)	-2.63
CCOc1cc(/C=N/NC(=O)c2cc3c(ccc4ccccc43)o2)ccc1O	1.28
CCC(O)c1cc2c(cc1NC(=O)c1cccs1)OCCO2 (stereo not shown)	7.08
Cc1ccccc1C(=O)Nc1cccc(C(=O)Nc2ccccc2C(=O)O)c1	16.8
CCc1ccc(CNC(=O)Cc2ccc(NC(=O)C3=C(C)OCCS3)cc2)cc1	16.8
Cc1nnc(CN(C)C(=O)c2cc(COc3ccc(F)cc3Cl)on2)o1	-1.05
Cc1c(C)c2c(OCC(=O)NCc3ccco3)cc3c(c2oc1=O)CCC(C)(C)O3	8.18
Cn1c(SCc2ccccc2)nc(N)c(N=O)c1=O	-17.3
O=C(CSc1n[nH]c(-c2ccccc2O)n1)N1CCCc2ccccc21	24.2
Cc1cc(NC(=O)C2CC(=O)N(c3cccc(C)c3C)C2)no1 (stereo not shown)	18.8
Cc1ccc(-n2ncc(C(=O)Nc3cc(Cl)ccc3C)c2C2CCNCC2)cc1C.Cl	-35.1
COc1ccc2[nH]cc(CCNC(=O)Nc3ccccc3)c2c1	18.1
COc1ccc(NS(=O)(=O)c2ccc(OC)c(OC)c2)cc1OC	13.3
CCOc1ccccc1N1CCN(C(=O)c2ccc(S(=O)(=O)Nc3ccccc3)cc2)CC1	5.18
CCOC(=O)c1[nH]c2c(c1C)C(=O)CC(c1ccco1)C2 (stereo not shown)	7.57
O=C(N/N=C/c1cccnc1)c1ccc(NC(=O)c2ccc(F)cc2)cc1	8.2
